Out of some 340,000 compounds screened, about 12,000 (3.5%) were called active. This list was built around the results that the source calls inconclusive (neither active nor inactive); the mix of calls is not that of the screen. Calls follow the shape of the dose curve; as a rule, active = well fitted inhibition curve with a large enough effect; inconclusive = small, poorly fitted or top-dose-only effect, or another doubt; inactive = no such curve, though single readings can be large or run the other way. Potencies of inconclusive entries are left out as doubtful fits.
Test: qHTS Assay for Inhibitors of Hepatitis C Virus (HCV)
Settings: Huh7.5.1 HCVcc-Cre (HCVcc is cell-culture hepatitis C virus) infection, luciferase reporter, 44 h; activity change, negative = inhibition: at 41.8 µM (top of the series) unless noted
In short: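 Luciferase read-out (15 sec integration) after a 15 min room-temperature substrate step quantifies HCVcc-Cre infection. Cells, 1,000 per well, had compound added 4 h post-plating, then virus at ~0.5 moi, and were cultured 44 h.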
% is scaled to controls: 0 for no effect and ±100 for the full control effect; potency is read from the fitted curve at half-maximal effect; tags tell the direction and shape of the fitted curve.

Compound | Potency | activity change, negative = inhibition
CCOC(=O)c1cnc(SCC(=O)Nc2cc(OC)ccc2OC)nc1N | active: 6.31 µM | –
CCOC(=O)C1(CCc2ccccc2)CCN(C(=O)c2cnc(C)cn2)CC1 | – | inactive: 12.5%
Cc1cc(O)cc(O)c1C(=O)Cc1ccccc1 | – | inactive: 9.4%
CCOc1ccc(NC(=O)CC2C(=O)N(c3ccc(OC)cc3)C(=O)N2CCc2cccs2)cc1 (centres undefined) | – | inactive: -20.6%
CCOc1ccc(S(=O)(=O)N(C)c2ccc(OCC(=O)Nc3ccccc3F)cc2)cc1 | inconclusive [inhibitor, single point] | –
O=[N+]([O-])c1ccc(NC(=S)NCc2ccc(F)cc2)cc1 | inconclusive [inhibitor, single point] | –
O=[N+]([O-])c1cccnc1SCc1c(F)cccc1Cl | – | inactive: 15.3%
S=C(Nc1ccccc1)Nc1ccc2ccccc2c1 | inconclusive [inhibitor, single point] | –
COc1cc(NC(=O)c2ccc(Cl)cc2)c(OC)cc1NC(=O)CN1CCCCC1 | active: 7.94 µM | –
Cc1ccc(-c2cc(C(=O)N3CCC(C)CC3)c3ccccc3n2)cc1 | inconclusive [inhibitor, single point] | –
CCCS(=O)(=O)c1nc(S(=O)(=O)c2ccc(Cl)cc2)c(N2CCC(O)CC2)s1 | – | inactive: -12.9%
COC(=O)[C@]1(Cc2ccccc2)N[C@H](c2ccc(SC3CCCCC3)c(OC)c2)[C@@H]2C(=O)N(C)C(=O)[C@@H]21 | inconclusive [inhibitor, single point] | –
COc1ccc(/C=C2\Sc3ccc(C(=O)NCCN4CCCCCC4)cc3N(C)C2=O)cc1 | inconclusive [inhibitor, single point] | –
CCN(CC)S(=O)(=O)c1ccc2oc(SCC3CN=C(c4ccc(OC)cc4)S3)nc2c1 (centres undefined) | active: 11.2 µM | –
COc1cccc(NC(=O)c2cccc(S(=O)(=O)N3CCN(Cc4ccccc4)CC3)c2)c1 | inconclusive [inhibitor, partial curve] | –
NS(=O)(=O)c1ccc(CCNCc2ccccc2OCc2ccc(F)cc2)cc1 | inconclusive [inhibitor, single point] | –
NC(=O)/C=C\C(=O)Nc1cccc(C(F)(F)F)c1 | inconclusive [inhibitor, single point] | –
CC1(C)CCC(=O)c2ccccc21 | – | inactive: 27.6%
O=C(CSc1ccccc1)NCCCc1ccccc1 | – | inactive: -1%
COc1ccc(OCCNC(=O)C(c2ccccc2)c2ccccc2)cc1 | inconclusive [inhibitor, single point] | –
Cn1nc(-c2ccccc2)c(CO)c1Sc1ccccc1 | inconclusive [inhibitor, partial curve] | –
CCOC(=O)NCc1ccccc1 | active: 2.82 µM | –
CCOC(=O)N1CCN(Cc2ccc(OCC(O)CN3CCCCC3)cc2)CC1 (centres undefined) | – | inactive: -16.2%
COc1ccc(CN2C(=O)NC(=O)/C(=C/c3ccoc3)C2=O)cc1 | – | inactive: 21.5%
S=C(NCCc1ccccc1)N1CCN(Cc2ccc(Cl)c(Cl)c2)CC1 | inconclusive [inhibitor, single point] | –

Compound | Potency | activity change, negative = inhibition
Clc1ccccc1CN1CCN(/N=C/C=C/c2ccco2)CC1 | – | inactive: -8.29%
CCOc1c(OC(C)=O)ccc(/C=C/c2ccc3cccc(OC(C)=O)c3n2)c1[N+](=O)[O-] | active: 8.91 µM | –
O=C(O)/C(=C1\OC(=O)c2ccccc21)c1ccccc1 | – | inactive: 6.23%
COc1ccc(OC)c(/C=N/NC(=O)c2ccc(=O)[nH]n2)c1 | – | inactive: 9.21%
Cc1cc(C)nc(NC(=O)Cc2cccs2)n1 | inconclusive [inhibitor, single point] | –
CCNc1nc(NC(C)(C)C)nc(N2CCCCC2)n1 | inconclusive [inhibitor, partial curve] | –
CCOC(=O)N1CCN(C(=O)c2ccc3c(c2)N(Cc2ccccc2)CCS3)CC1 | inconclusive [inhibitor, single point] | –
COc1cccc(C(=O)NC(=S)Nc2ccccc2N2CCCCC2)c1 | inconclusive [inhibitor, single point] | –
COc1ccc(N(CC(=O)NCCSCc2ccco2)S(=O)(=O)c2ccccc2)cc1Cl | inconclusive [inhibitor, single point] | –
CC(C)Oc1ccc(N2CC(C(=O)Nc3ccccc3C(=O)NC3CC3)CC2=O)cc1 (centres undefined) | inconclusive [inhibitor, single point] | –
Cc1ccc(C(=O)c2cncc(Br)c2)cc1 | – | inactive: -8.26%
O=C(Oc1c(CN2CCOCC2)cc(Cl)c2cccnc12)c1cccs1 | inconclusive [inhibitor, partial curve] | –
CCc1nnc(NC(=O)CSc2nnc(-c3ccccc3O)n2-c2ccc(C)cc2)s1 | inconclusive [inhibitor, partial curve] | –
Nc1ccc2c(c1)nnn2-c1ccccc1 | – | inactive: 17.9%
O=C1CC(c2ccccc2)Cc2nc3ncnn3cc21 (centres undefined) | inconclusive [inhibitor, full curve, poor fit] | –
O=C(NCc1ccccc1)NC1CC2CCC(C1)N2Cc1ccco1 (centres undefined) | – | inactive: 7.99%
COc1ccc(CCn2c(=N)c(C(=O)NCc3ccco3)cc3c(=O)n4cccc(C)c4nc32)cc1 | inconclusive [inhibitor, partial curve] | –
Clc1cccc(Nc2c3c(nc4ncnn24)CCC3)c1 | inconclusive [inhibitor, single point] | –
CNc1snc(C)c1C(=O)OCC(=O)c1ccc(Cl)cc1 | inconclusive [inhibitor, single point] | –
COc1ccc(S(=O)(=O)N(C)CC(=O)NCCC2=CCCCC2)cc1OC | inconclusive [inhibitor, partial curve] | –
O=[N+]([O-])c1ccc(Cc2ccccn2)cc1 | – | inactive: 17.5%
COc1ccc(OC)c(NC2=NCCCS2)c1 | – | inactive: 21.7%
CN(C1=C(NC(=O)c2ccc(Cl)cc2)C(=O)c2ccccc2C1=O)c1ccccc1 | inconclusive [inhibitor, partial curve, poor fit] | –
CCOC(=O)C1=C(C)C(c2cccc(Oc3ccccc3)c2)NC(=S)N1 (centres undefined) | inconclusive [inhibitor, partial curve] | –
